# Data published in PubChem BioAssay AID485281 (National Center for Advancing Translational Sciences (NCATS), 2010).
# Among all 350,000 compounds or so, about 260 (0.074%) were called active. The inconclusive results got no clear call from the source; some entries with a clear call stand among them for comparison. Calls come from the whole dose curve; as a rule, active = well fitted inhibition curve with a large enough effect; inconclusive = small, poorly fitted or top-dose-only effect; inactive = no such curve, though single readings can be large or run the other way. A potency beside an inconclusive call is a rough fit, not a confirmed value.
# Biological target: Ferritin light chain (Equus caballus) (UniProt P02791)
# UniProt P02791, sequence (P02791 whole entry, looked up): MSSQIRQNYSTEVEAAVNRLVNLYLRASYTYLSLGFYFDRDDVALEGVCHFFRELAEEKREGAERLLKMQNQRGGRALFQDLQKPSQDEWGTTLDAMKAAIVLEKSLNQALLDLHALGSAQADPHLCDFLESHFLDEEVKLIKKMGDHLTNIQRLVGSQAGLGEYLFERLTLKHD
# Experiment: qHTS Assay for Identification of Novel General Anesthetics; note: nearly all actives have a fitted effect of over 20% in size
# Conditions: apoferritin/1-aminoanthracene competitive binding, fluorescence; activity change, negative = displacement: at 77.5 µM (top of the series)
# In short: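 Apoferritin-based anesthetic binding model; compound displacement of fluorescent 1-AMA measured as endpoint fluorescence after 10 minutes at room temperature, scaled to free-ligand and complex controls.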
# % is set by controls: 0 for no effect and ±100 for the full control effect; potency is the fitted concentration of half-maximal effect; tags give direction and shape of the fitted curve.
Structure (SMILES),"activity change, negative = displacement",Potency
Cn1cc(-c2cc3n(n2)CCC(=O)N3CCCC(=O)NCc2ccccc2Cl)c2ccccc21,inactive: -12.5%,
CC(C)(C)OC(=O)CNC(=O)c1[nH]cnc1C(=O)NCCCCCNC(=O)OC(C)(C)C,,"inconclusive: 35.5 µM [inhibitor, single point]"
CCCc1nnc(NC(=O)C(CC)OC(=O)c2cc(C)nc3ccccc23)s1 (stereo not drawn),,"inconclusive: 39.8 µM [inhibitor, single point]"
CC(C)c1ccc(NC(=O)c2sccc2-n2cccc2)cc1,,"inconclusive: 31.6 µM [inhibitor, single point]"
O=C(CCCC(=O)OCC(F)(F)C(F)F)Nc1nccs1,,"inconclusive: 35.5 µM [inhibitor, partial curve]"
O=C(c1cccs1)n1nc(-c2ccccc2)nc1NCc1ccco1,inactive: 2.83%,
Cc1ccccc1-c1nnc(-c2cccs2)o1,,"inconclusive: 39.8 µM [inhibitor, single point]"
CC(C)C1OC(c2cccc(NC(=O)c3cccs3)c2)OCC1(C)C (stereo not drawn),,"inconclusive: 10 µM [inhibitor, partial curve]"
COCCN1Cc2cc3cc(C)ccc3nc2SC1=Nc1cccc(OC)c1,inactive: -4.35%,
CN(CC(=O)Nc1ccc(N2CCOCC2)cc1)CC(=O)Nc1ccc([N+](=O)[O-])cc1Br,,"inconclusive: 35.5 µM [inhibitor, single point]"
CCN(CC)S(=O)(=O)c1ccc2[nH]c(=O)cc(C(=O)Nc3ccc(C)c(S(=O)(=O)N(CC)CC)c3)c2c1,,"inconclusive: 44.7 µM [inhibitor, single point]"
COc1ccc(N(CC(=O)Nc2ccc(C)c(C)c2)S(=O)(=O)c2c(C)n[nH]c2C)cc1,,"inconclusive: 35.5 µM [inhibitor, partial curve]"
COc1cc2oc(=O)cc(-c3cccc(-c4ccc(C(F)(F)F)cc4)c3)c2c(OC)c1OC,,"inconclusive: 14.1 µM [inhibitor, partial curve]"
O=C(N/N=C/c1ccc(OCc2ccccc2)cc1)c1ccc(O)cc1,,"inconclusive: 20 µM [inhibitor, partial curve]"
COc1ccc(CCn2c(C)cc(C(=O)COC(=O)c3cnccn3)c2C)cc1,,"inconclusive: 22.4 µM [inhibitor, partial curve]"
CCN(Cc1ccccc1)C(=O)CN1C(=O)NC2(CC(C)CC(C)(C)C2)C1=O (stereo not drawn),,"inconclusive: 35.5 µM [inhibitor, single point]"
CCC(NC(=O)Nc1nccs1)(C(F)(F)F)C(F)(F)F,,"inconclusive: 17.8 µM [inhibitor, partial curve]"
COc1ccc(-n2c(SCc3ccccc3)nc3c([nH]c4ccccc43)c2=O)cc1,,"inconclusive: 5.62 µM [inhibitor, partial curve]"
Cc1cc(NC(=O)CCN2CCN(C)CC2)ccc1Br,inactive: -6.24%,
CC(OC(=O)C1CC1)C(=O)Nc1cc(C(F)(F)F)ccc1Cl (stereo not drawn),,"inconclusive: 22.4 µM [inhibitor, partial curve]"
O=C(Nc1ccc(F)cc1)N(Cc1ccco1)Cc1cc2cc3c(cc2[nH]c1=O)OCO3,inactive: -4.12%,
CN(C)CCNC(=O)CCCNC(=O)Cn1cnc2sc3c(c2c1=O)CCCC3,,"inconclusive: 39.8 µM [inhibitor, single point]"
Fc1cccc(Cl)c1CNCc1ccccc1Cl,,"inconclusive: 22.4 µM [inhibitor, partial curve]"

Structure (SMILES),"activity change, negative = displacement",Potency
CCC(C)NS(=O)(=O)c1ccc(NC(=O)Cc2ccc(OC)cc2)cc1 (stereo not drawn),,"inconclusive: 28.2 µM [inhibitor, partial curve]"
COc1ccc(F)cc1C(=O)C1CCCN(Cc2c[nH]c3ccccc23)C1 (stereo not drawn),,"inconclusive: 35.5 µM [inhibitor, single point]"
CCCCc1ccc(NC(=O)CSC2=C(C#N)C(c3ccco3)C3=C(CCCC3=O)N2)cc1 (stereo not drawn),,"inconclusive: 3.98 µM [inhibitor, partial curve]"
Cc1ccc(C(=O)N2CCSC2=S)cc1,,"inconclusive: 35.5 µM [inhibitor, partial curve]"
O=C(NC(=S)NCc1ccccc1)c1ccccc1[N+](=O)[O-],,"inconclusive: 22.4 µM [inhibitor, partial curve]"
c1ccc(CC(Nc2ccccn2)c2ccccc2)cc1 (stereo not drawn),,"inconclusive: 28.2 µM [inhibitor, partial curve]"
O=C(Cc1ccccc1F)c1ccc(O)cc1O,,"inconclusive: 35.5 µM [inhibitor, partial curve]"
CCCCOc1ccc(-c2nnn(CC(=O)Nc3ncc(CC(=O)OCC)s3)n2)cc1,,"inconclusive: 39.8 µM [inhibitor, partial curve]"
CCOC(=O)c1ccc(NC(=S)N(CCCN2CCCC2)Cc2cccs2)cc1,inactive: -4.89%,
O=C(c1ccccc1F)N1CCN(c2ccc([N+](=O)[O-])c(N3CCOCC3)c2)CC1,,"inconclusive: 31.6 µM [inhibitor, single point]"
Cc1cccc(NC(=O)CSc2nc(-c3cccs3)cc(C(F)(F)F)c2C#N)c1,inactive: 3.74%,
COc1ccccc1N1CCN(C(c2cc3ccc(C)cc3[nH]c2=O)c2nnnn2C2CCCC2)CC1 (stereo not drawn),,"inconclusive: 31.6 µM [inhibitor, partial curve]"
COc1ccccc1C(=O)Nc1cc(-c2cccc(Br)c2)nn1-c1ccccc1,inactive: 46%,
C=CCc1cccc(/C=N/c2ncccc2O)c1O,inactive: -8.4%,
C=CCn1c(C)cc(C(=O)CSc2nnc(NCc3ccccc3)s2)c1C,,"inconclusive: 7.94 µM [inhibitor, partial curve]"
CCCCN(CCCC)c1nc(OC)nc(-n2nnc(C(C)=O)c2C)n1,,"inconclusive: 17.8 µM [inhibitor, partial curve]"
Cc1ccc(-n2nnnc2SCC(=O)c2ccc3c(c2)NC(=O)CO3)c(C)c1,,"inconclusive: 17.8 µM [inhibitor, partial curve]"
Fc1cccc(Cl)c1Cn1ncc2ccccc21,,"inconclusive: 25.1 µM [inhibitor, partial curve]"
CCN1CCN(C(=O)C2COc3ccccc3O2)CC1 (stereo not drawn),inactive: -1.16%,
COc1cccc(NC(=O)CSc2nc3c(sc4ccccc43)c(=O)n2CCN(C)C)c1,,"inconclusive: 20 µM [inhibitor, partial curve]"
COc1ccc(-n2cc(CNCCc3cnc[nH]3)c(-c3cccc(F)c3)n2)cc1,,"inconclusive: 12.6 µM [inhibitor, partial curve]"
CCOC(=O)COc1ccc2nsnc2c1Cl,inactive: 111%,
CCc1nnc(NC(=O)c2nc(S(=O)(=O)Cc3ccccc3)ncc2Cl)s1,inactive: -15.7%,

Structure (SMILES),"activity change, negative = displacement",Potency
CCOC(=O)c1c(-c2ccccc2)oc2ccc(OC)cc12,inactive: -15.2%,
O=C1C2CC=CCC2C(=O)N1c1ccc(Cc2ccncc2)cc1 (stereo not drawn),,"inconclusive: 14.1 µM [inhibitor, partial curve]"
CCOc1cc(CNC(=O)c2ccc(NC(=O)c3nsc4ccccc34)cc2)ccc1OC,,"inconclusive: 4.47 µM [inhibitor, full curve]"
CC(C)(C)c1ccc(NC(=O)COC(=O)C2=COCCO2)cc1,,"inconclusive: 28.2 µM [inhibitor, partial curve]"
CC[C@H](C)[C@H](NC(=O)[C@H](Cc1ccc(O)cc1)NC(=O)[C@@H](N)C(C)C)C(=O)N[C@@H](Cc1cnc[nH]1)C(=O)N1CCC[C@H]1C(=O)N[C@@H](Cc1ccccc1)C(=O)O,inactive: 14.3%,
CC(C)CC(=O)Nc1ncc([N+](=O)[O-])s1,inactive: -11.4%,
CCC1CCCN1Cn1cnc2c([nH]c3ccc(OC)cc32)c1=O (stereo not drawn),inactive: 1.04%,
C=CCC1CCC/C(=N\NS(=O)(=O)c2ccc(C)cc2)C1 (stereo not drawn),,"inconclusive: 50.1 µM [inhibitor, single point]"
CCS(=O)(=O)N1CCN(c2ccc([N+](=O)[O-])c(NCc3ccccc3)c2)CC1,,"inconclusive: 31.6 µM [inhibitor, partial curve]"
Cc1[nH]n2c(=O)cc(C(C)C)nc2c1-c1ccccc1,inactive: -9.19%,
Cc1ccc2[nH]cc(CCCN3C(=O)c4ccccc4C3=O)c2c1,,"inconclusive: 50.1 µM [inhibitor, single point]"
Fc1ccccc1Cn1nnc2c(-n3ccnc3)ncnc21,,"inconclusive: 31.6 µM [inhibitor, partial curve]"
CNc1ncc(Cc2ccccc2)s1,,"inconclusive: 50.1 µM [inhibitor, single point]"
COc1ccc(N=Cc2cc(Cc3ccccc3Cl)cc([N+](=O)[O-])c2O)cc1OC,,"inconclusive: 3.98 µM [inhibitor, full curve]"
COc1ccc(-c2ccnc(SCC(=O)c3ccc(Cl)cc3)n2)cc1,,"inconclusive: 20 µM [inhibitor, partial curve]"
O=[N+]([O-])c1ccc(N2CCN(C(=S)NCc3ccc(Cl)cc3)CC2)cc1,inactive: -8.19%,
CCC(=O)Nc1cc(C(=O)NCc2ccc(C)cc2)ccc1S(=O)(=O)c1ccc(C)cc1,,"inconclusive: 22.4 µM [inhibitor, partial curve]"
CCc1cccc(C)c1Nc1c(-c2ccc(N(C)C)cc2)nc2ncccn12,,"inconclusive: 44.7 µM [inhibitor, partial curve]"
Cc1cccc(NC(=O)Nc2ccc3c(c2)CCC3)c1,inactive: -6.79%,
c1ccc(C2(CNc3ccccn3)CCCC2)cc1,,"inconclusive: 35.5 µM [inhibitor, partial curve]"
Cc1ccc(/C=C/C(=O)c2c(C)nc3ccccn23)cc1,,"inconclusive: 35.5 µM [inhibitor, partial curve]"
O=C(NC1CCCCCC1)C(=S)NCCc1ccccc1,,"inconclusive: 4.47 µM [inhibitor, single point]"
